From the antibiotic and cytotoxicity screens of Wong et al. (2023) come the findings set out here.

The other results are listed elsewhere or left out.

One test relates to HSkMC. The test is described as follows: cytotoxicity call (relative viability < 0.9). Conditions: 10 µM.
A further test has as its system HepG2. Description: cytotoxicity call (relative viability < 0.9). Conditions: 10 µM.
The subject of the next test is S. aureus RN4220. The test is described as follows: growth inhibition call (relative growth <= 0.2). Conditions: 50 µM.

With `C[C@@H]1CN([C@H](C)CO)C(=O)c2cc(NC(=O)Nc3ccc(C(F)(F)F)cc3)ccc2O[C@@H](C)CCCCO[C@@H]1CN(C)Cc1ccc(Cl)c(Cl)c1`, the cytotoxicity call in the test with HSkMC and in the test with HepG2 was “inactive” throughout. Moreover, in the test on S. aureus RN4220, the growth inhibition call is “inactive”.

Regarding `C[C@@H]1CN([C@H](C)CO)C(=O)c2cccc(NC(=O)c3ccncc3)c2O[C@@H]1CN(C)Cc1ccncc1`, the cytotoxicity call in the test with HSkMC and in the test on HepG2 was “inactive” each time. For the same compound, the growth inhibition call in the test on S. aureus RN4220 was “inactive”.

Turning to `COc1ccc(S(=O)(=O)Nc2ccc3c(c2)C(=O)N([C@@H](C)CO)C[C@@H](C)[C@@H](CN(C)Cc2ccc(C(=O)O)cc2)OCCCC[C@@H](C)O3)cc1`, the cytotoxicity call with HSkMC and with HepG2 was “inactive” throughout. In the test on S. aureus RN4220, the growth inhibition call was “inactive”.

In the case of `COc1ccc(NC(=O)N(C)C[C@@H]2Oc3ccc(NS(=O)(=O)c4cn(C)cn4)cc3CC(=O)N([C@@H](C)CO)C[C@@H]2C)cc1`, the cytotoxicity call with HSkMC and in the test with HepG2 was “inactive” each time. For the same compound, the growth inhibition call with S. aureus RN4220 was “inactive”.

Turning to `C[C@H](CO)N1C[C@H](C)[C@H](CN(C)C(=O)Nc2ccccc2F)OCCCC[C@H](C)Oc2ccc(NC(=O)C3CCCCC3)cc2C1=O`, the cytotoxicity call in the test on HSkMC and in the test on HepG2 was “inactive” each time. Also, the growth inhibition call in the test on S. aureus RN4220 is “inactive”.

`C/C=C/c1ccc2c(c1)O[C@H](CN(C)Cc1ccc(C(=O)O)cc1)[C@@H](C)CN([C@@H](C)CO)S2(=O)=O`: the cytotoxicity call with HSkMC and in the test with HepG2 was “inactive” each time. Besides, the growth inhibition call with S. aureus RN4220 was “inactive”.

Take `C=CCC[C@@H](Cc1ccc(F)cc1)C(=O)OC[C@@H](NC(=O)[C@@H](CC=C)CC(=O)N[C@H](CO)Cc1ccccc1)C(C)(C)C`: the cytotoxicity call with HSkMC was “inactive”. In addition, the cytotoxicity call in the test on HepG2 is “active”. Further, in the test with S. aureus RN4220, the growth inhibition call is “inactive”.

For the compound `C[C@@H]1CN([C@H](C)CO)C(=O)c2cccc(NS(=O)(=O)c3ccccc3)c2O[C@H]1CN(C)Cc1ccc(Oc2ccccc2)cc1`, the cytotoxicity call in the test with HSkMC and in the test on HepG2 was “inactive” in each case. The growth inhibition call with S. aureus RN4220 was “inactive”.

On to `O=[Si](O)O`, for which the cytotoxicity call in the test on HSkMC and in the test on HepG2 was “inactive” in each case. Moreover, in the test with S. aureus RN4220, the growth inhibition call is “inactive”.

With `CC(C)NC(=O)N(C)C[C@@H]1Oc2ccc(NS(=O)(=O)c3ccc(F)cc3)cc2C(=O)N([C@H](C)CO)C[C@@H]1C`, the cytotoxicity call in the test with HSkMC and in the test with HepG2 was “inactive” each time. Further, in the test on S. aureus RN4220, the growth inhibition call is “inactive”.

As to `C[C@@H]1CN([C@@H](C)CO)C(=O)Cc2cc(NC(=O)c3ccncc3)ccc2O[C@@H]1CN(C)S(=O)(=O)c1ccc(F)cc1`, the cytotoxicity call with HSkMC and in the test on HepG2 was “inactive” throughout. Also, the growth inhibition call in the test with S. aureus RN4220 is “inactive”.

With `CC(C)NC(=O)N(C)C[C@@H]1Oc2ccc(NC(=O)NC3CCCCC3)cc2C(=O)N([C@H](C)CO)C[C@@H]1C`, the cytotoxicity call in the test on HSkMC and in the test with HepG2 was “inactive” each time. Moreover, the growth inhibition call with S. aureus RN4220 is “inactive”.

`C[C@@H]1CN([C@H](C)CO)C(=O)c2cc(NS(=O)(=O)c3ccc(F)cc3)ccc2O[C@@H]1CN(C)S(=O)(=O)c1ccc(F)cc1`: the cytotoxicity call with HSkMC and in the test on HepG2 was “inactive” in each case. Besides, the growth inhibition call in the test on S. aureus RN4220 was “inactive”.

Take `Cc1cc(N)n(-c2nc(=O)c(C)c(C)[nH]2)n1`: the cytotoxicity call with HSkMC and in the test with HepG2 was “inactive” each time. Besides, the growth inhibition call with S. aureus RN4220 was “inactive”.

For the compound `CC(C)CC#Cc1ccc2c(c1)O[C@@H](CN(C)C(=O)c1cnccn1)[C@@H](C)CN([C@H](C)CO)S2(=O)=O`, the cytotoxicity call in the test on HSkMC and in the test on HepG2 was “inactive” in each case. Further, in the test with S. aureus RN4220, the growth inhibition call is “inactive”.

Take `C[C@@H]1CCCCO[C@H](CN(C)S(=O)(=O)c2ccc(Cl)cc2)[C@@H](C)CN([C@@H](C)CO)C(=O)c2cc(NS(=O)(=O)c3ccccc3)ccc2O1`: the cytotoxicity call in the test on HSkMC and with HepG2 was “inactive” throughout. In addition, the growth inhibition call in the test on S. aureus RN4220 was “inactive”.

As for `C[C@H](CO)N1C[C@H](C)[C@H](CN(C)Cc2ccc(Oc3ccccc3)cc2)Oc2ccc(NC(=O)NC3CCCCC3)cc2C1=O`, the cytotoxicity call in the test with HSkMC and in the test on HepG2 was “inactive” in each case. Further, the growth inhibition call with S. aureus RN4220 was “inactive”.

Regarding `COc1ccc(NC(=O)Nc2ccc3c(c2)C(=O)N([C@H](C)CO)C[C@H](C)[C@@H](CN(C)CC2CC2)OCCCC[C@@H](C)O3)cc1`, the cytotoxicity call in the test on HSkMC and with HepG2 was “inactive” in each case. The growth inhibition call in the test on S. aureus RN4220 was “inactive”.

Turning to `CO[C@@H]1CN(C)C(=O)c2cc(NC(=O)C3CC3)ccc2OC[C@H](C)N(C(=O)CN2CCOCC2)C[C@@H]1C`, the cytotoxicity call with HSkMC and with HepG2 was “inactive” throughout. Moreover, the growth inhibition call in the test on S. aureus RN4220 was “inactive”.

For the compound `CO[C@@H]1CN(C)C(=O)c2cc(NC(=O)Nc3ccccc3F)ccc2OC[C@@H](C)N(CCC(F)(F)F)C[C@H]1C`, the cytotoxicity call in the test with HSkMC and in the test with HepG2 was “inactive” each time. The growth inhibition call in the test on S. aureus RN4220 is “inactive”.

As for `CO[C@@H](CN(C)S(=O)(=O)c1cccc(Cl)c1)[C@H](C)CN([C@H](C)CO)S(=O)(=O)c1ccc(Cl)cc1`, the cytotoxicity call in the test with HSkMC and with HepG2 was “inactive” throughout. Also, the growth inhibition call with S. aureus RN4220 is “inactive”.

Regarding `CO[C@@H]1CN(C)C(=O)c2ccc(NS(=O)(=O)c3cn(C)cn3)cc2OC[C@H](C)N(Cc2cccc(F)c2)C[C@H]1C`, the cytotoxicity call in the test on HSkMC and in the test on HepG2 was “inactive” each time. Further, the growth inhibition call in the test with S. aureus RN4220 is “inactive”.

For `Cc1cc(C(=O)Nc2cccc3c2O[C@H](CN(C)Cc2ccc(Oc4ccccc4)cc2)[C@@H](C)CN([C@@H](C)CO)C3=O)n(C)n1`, the cytotoxicity call in the test with HSkMC and in the test on HepG2 was “inactive” throughout. Further, the growth inhibition call with S. aureus RN4220 is “inactive”.

On to `C[C@@H]1CN([C@@H](C)CO)C(=O)c2cc(C#Cc3ccncc3)cnc2O[C@@H]1CN(C)C(=O)c1ccccc1F`, for which the cytotoxicity call with HSkMC and with HepG2 was “inactive” throughout. Moreover, in the test with S. aureus RN4220, the growth inhibition call is “inactive”.

Take `C[C@@H]1CN([C@H](C)CO)C(=O)c2cc(NC(=O)Nc3cccc4ccccc34)ccc2O[C@@H]1CN(C)C(=O)NC1CCCCC1`: the cytotoxicity call in the test with HSkMC and in the test on HepG2 was “inactive” in each case. For the same compound, the growth inhibition call with S. aureus RN4220 is “inactive”.

As to `C[C@@H](O)CO`, the cytotoxicity call in the test on HSkMC (human skeletal muscle cells) and in the test with HepG2 was “inactive” throughout. Moreover, the growth inhibition call in the test on S. aureus RN4220 is “inactive”.
